# The campaign covered roughly 310,000 compounds. About 14,000 (4.5%) showed an effect of 50% or more. The effect is printed as a negative number. The list shows a part of the results.
# Biological target: human ether-à-go-go-related gene (hERG) potassium channel (human, UniProt Q12809)
# Experiment: primary screen, population patch clamp on CHO cells stably expressing hERG
# 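Also: peak tail current of the secondary pulse compared with the same well before compound.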
# Chain of human ether-à-go-go-related gene (hERG) potassium channel (Q12809 whole entry, looked up): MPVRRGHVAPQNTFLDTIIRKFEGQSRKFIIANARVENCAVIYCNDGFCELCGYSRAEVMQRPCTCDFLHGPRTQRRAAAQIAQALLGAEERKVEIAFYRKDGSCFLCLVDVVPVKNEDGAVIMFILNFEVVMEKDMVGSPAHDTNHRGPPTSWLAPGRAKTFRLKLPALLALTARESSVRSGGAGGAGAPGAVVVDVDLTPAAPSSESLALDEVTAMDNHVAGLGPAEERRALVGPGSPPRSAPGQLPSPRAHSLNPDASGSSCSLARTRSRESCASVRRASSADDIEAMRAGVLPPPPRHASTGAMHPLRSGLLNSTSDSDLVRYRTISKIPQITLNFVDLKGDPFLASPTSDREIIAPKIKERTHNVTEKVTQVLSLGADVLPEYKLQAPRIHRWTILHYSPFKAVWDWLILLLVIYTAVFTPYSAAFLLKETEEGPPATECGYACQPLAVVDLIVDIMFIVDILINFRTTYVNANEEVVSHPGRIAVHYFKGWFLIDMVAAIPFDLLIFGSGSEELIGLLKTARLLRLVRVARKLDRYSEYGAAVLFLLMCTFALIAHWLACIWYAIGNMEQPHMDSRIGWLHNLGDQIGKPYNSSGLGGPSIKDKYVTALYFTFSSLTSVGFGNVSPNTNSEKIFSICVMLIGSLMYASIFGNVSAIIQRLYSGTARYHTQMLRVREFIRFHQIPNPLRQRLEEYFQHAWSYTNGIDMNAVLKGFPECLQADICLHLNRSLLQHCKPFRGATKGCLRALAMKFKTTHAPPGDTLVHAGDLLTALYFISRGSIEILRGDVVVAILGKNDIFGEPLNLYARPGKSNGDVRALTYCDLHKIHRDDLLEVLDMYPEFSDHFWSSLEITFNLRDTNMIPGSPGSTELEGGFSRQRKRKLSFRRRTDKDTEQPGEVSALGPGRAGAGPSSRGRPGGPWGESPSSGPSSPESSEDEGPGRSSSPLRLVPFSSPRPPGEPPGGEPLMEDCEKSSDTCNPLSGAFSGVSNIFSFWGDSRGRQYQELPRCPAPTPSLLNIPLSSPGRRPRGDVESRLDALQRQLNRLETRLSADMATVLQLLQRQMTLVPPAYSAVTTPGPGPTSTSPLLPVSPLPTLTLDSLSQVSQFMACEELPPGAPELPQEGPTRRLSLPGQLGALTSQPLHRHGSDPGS
row,SMILES,"hERG current change (%, negative = inhibition) at 10uM [%]"
1,COc1ccccc1Nc1nc(N)nc(CN2CCOCC2)n1,10.1
2,C/C(=N\N=c1/scc(C)n1Cc1ccco1)c1cccc([N+](=O)[O-])c1,4.46
3,O=C(CCCCCN1C(=O)c2ccccc2C1=O)Nc1ccc(S(=O)(=O)N2CCCCC2)cc1,-46.6
4,Cc1ccc(C(=O)N2CCCC(Nc3ccc(F)c(F)c3)C2)cn1 (centres unmarked),-32.1
5,O=C(COc1ccccc1Cl)NCc1ccccc1,-2.58
6,COc1ccc(/C=N/NC(=O)CNC(=O)/C=C/c2ccccc2OC)cc1,-25.4
7,Cc1oc2c(cc(NS(=O)(=O)c3ccc(F)cc3)c3ccccc32)c1C(=O)O,8.07
8,COc1ccc(Nc2oc(-c3ccc(OC)cc3)nc2C#N)cc1,15.5
9,COCc1ccc(C(=O)N2CCCC(N(C)CCc3ccc(OC)c(OC)c3)C2)s1 (centres unmarked),-62.4
10,O=C1C=C(c2ccc(F)cc2OCc2ccccc2)C[C@@H](c2ccc(Cl)cc2)C1,6.91
11,C=CCN1C(=O)/C(=C\c2cccc(OC(=O)c3ccco3)c2)SC1=S,2.37
12,O=C(NC1CCCC1)C1CCCN1C(=O)Oc1ccccc1 (centres unmarked),31.4
13,CCc1ccc(-c2cc(C)no2)cc1S(=O)(=O)N1CCN(C(=O)c2ccco2)CC1,-59.6
14,CCOC(=O)CSc1nnc(C)c(C)n1,-8.34
15,COc1cccc(C(=O)Nc2nnc(SCC(=O)NC3CCCC3)s2)c1,9.37
16,CC(C)N(Cc1ccccc1)S(=O)(=O)c1cccs1,-5.85
17,CC1=C(C(=O)OCc2ccccc2)C(c2cccc([N+](=O)[O-])c2)NC(=O)N1C (centres unmarked),-17.9
18,COc1ccc(OCC(=O)Nc2ccc(C)cc2)cc1,8.19
19,O=C(NCCCN1CCCC1=O)c1csc2ccccc12,-28.2
20,CCOc1ccc(C2C(C(=O)C3CC3)N3C=C(C#N)C=CC3C2(C#N)C#N)cc1 (centres unmarked),-5.27
21,COCCN(Cc1cc2cccc(C)c2[nH]c1=O)C(=O)c1ccccc1,3.44
22,Cc1cc(C(F)(F)F)n2ncc(C(=O)O)c2n1,-0.0314

row,SMILES,"hERG current change (%, negative = inhibition) at 10uM [%]"
1,COc1ccc(S(=O)(=O)Nc2nnc(Cc3ccc(OC)c(OC)c3)s2)cc1,18.7
2,CCCn1ncc(CN2CCN(CCc3ccccc3)C(CCO)C2)c1C (centres unmarked),-46.9
3,COC(=O)CSc1nnc(-c2sc3ccccc3c2Cl)o1,11.1
4,O=C(COc1ccccc1)N1CCN(C2CC3CCC2C3)CC1 (centres unmarked),7.39
5,C=C(C)CSc1nc2sc3c(c2c(=O)n1-c1ccccc1)CCN(C)C3,16.6
6,COc1ccc(CNC(=O)c2ccc(CS(=O)(=O)c3ccc(Br)cc3)o2)cc1,-8.03
7,Cc1ccccc1C(=O)NNC(=O)Nc1ccccc1,11.6
8,O=C(Nc1ccncc1)c1cc(S(=O)(=O)N2CCOCC2)ccc1Cl,-46.6
9,CN(C)S(=O)(=O)c1ccc(C(=O)Nc2cccc(S(=O)(=O)NC3=NCCC3)c2)cc1,1.88
10,COc1cccc(-c2cccc(NC(=O)C3CCN(Cc4cnn(C)c4)CC3)c2)c1,-15.6
11,CCn1ccnc1CN(C)Cc1cn(-c2ccc(C)cc2)nc1-c1ccc(F)cc1,-39.9
12,CC(=O)c1c(C)[nH]c(C(=O)OCc2ccc(Br)cc2)c1C,25.8
13,COc1cc(C2CC(=O)NC3=C2C(=O)CC(C)(C)C3)cc(OC)c1O (centres unmarked),6.23
14,Cc1cc(C(=O)COC(=O)c2ccc3c(c2)OCO3)c(C)n1CC1CCCO1 (centres unmarked),-36.2
15,O=C(N1CCCCC1)C12CC3CC(C1)CC(C(=O)N1CCCCC1)(C3)C2,-5.13
16,CCN(CC)C(=O)CN1C(=O)COCC1=O,3.44
17,C=CCSc1n[nH]c(=O)n1-c1cccc(C(F)(F)F)c1,11.1
18,COc1ccc(S(=O)(=O)C(C#N)c2nc3ccccc3nc2N2CCCC(C)C2)cc1 (centres unmarked),13.9
19,Cn1c(=O)n(C)c2cc(NS(=O)(=O)c3ccccc3)ccc21,4.09
20,C=C[C@@](C)(O)CC[C@@H]1[C@@]2(C)CCCC(C)(C)[C@@H]2CC[C@@]1(C)O,-1.93
21,CC(=O)NC(CCCCNC(=S)NC1CCCCC1)C(=O)O (centres unmarked),13
22,Cc1ncc([N+](=O)[O-])n1CCOC(=O)Nc1ccc(Cl)c(Cl)c1,1.07

# From publication PMC4336329 (PLoS ONE, 2015)
